The source of these data is the supplement of paper PMC9446081.

Out of some 39,000 compounds screened, about 220 (0.56%) showed activity. The list shows a part of the results.
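Also: static incubation at 37 °C against the wild-type strain, values averaged over two biological replicates.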

The assay relates to Escherichia coli K-12 BW25113. The assay is described as follows: relative growth (OD600 normalised to plate interquartile mean) (fraction); higher = less growth inhibition, active = 0.2 or less. The settings on record: 50 µM; LB; incubation time: overnight (16-24 h).
Take `C[C@H](CO)N1C[C@H](C)[C@@H](CN(C)C(=O)c2ccccc2)OCCCC[C@H](C)Oc2ccc(NS(=O)(=O)c3cccs3)cc2C1=O`: the relative growth is inactive: 0.995.

On to `C[C@@H]1CN([C@H](C)CO)C(=O)CCCn2nncc2CO[C@H]1CN(C)S(=O)(=O)c1cn(C)cn1`, for which the relative growth is inactive: 0.986.

Consider `O=c1ccn([C@H]2O[C@H](CO)[C@@H](O)[C@@H]2O)c(=S)[nH]1`, for which the relative growth was inactive: 0.867.

On to `C[C@@H]1CN([C@@H](C)CO)C(=O)c2cc(NC(=O)Nc3ccc(F)cc3)ccc2O[C@@H]1CN(C)S(C)(=O)=O`, for which the relative growth is inactive: 1.05.

As for `CCn1nnc2c(=S)nc[nH]c21`, the relative growth was inactive: 0.969.

On to `O=C(Nc1ccc(C(F)(F)F)cc1)Nc1ccc2c(c1)[C@H]1C[C@H](CC(=O)N3CCc4ccccc4C3)O[C@H](CO)[C@H]1O2`, for which the relative growth was inactive: 1.02.

Turning to `C[C@@H]1CCCCO[C@H](CN(C)C(=O)c2ccccc2)[C@@H](C)CN([C@@H](C)CO)C(=O)c2cc(NS(=O)(=O)c3cccs3)ccc2O1`, the relative growth is inactive: 1.

As to `C[C@@H]1CN([C@@H](C)CO)C(=O)c2cc(NC(=O)c3ccccc3)ccc2O[C@@H](C)CCCCO[C@H]1CN(C)Cc1ccc(C(=O)O)cc1`, the relative growth was inactive: 0.995.

With `C[C@@H]1CN([C@H](C)CO)C(=O)c2cccc(NS(=O)(=O)c3ccccc3)c2O[C@@H]1CN(C)Cc1ccc(-c2ccccc2)cc1`, the relative growth is inactive: 1.01.

`COCC#Cc1ccc([C@@H]2[C@H]3CN(C(=O)c4ccncc4)CC(=O)N3[C@H]2CO)cc1`: the relative growth was inactive: 0.94.

`CN1N=C(N)c2cn([C@@H]3O[C@H](COP(=O)(O)O)[C@@H](O)[C@H]3O)c3ncnc1c23`: the relative growth was inactive: 0.949.

Take `C[C@@H]1CCCCO[C@@H](CN(C)Cc2ccc3c(c2)OCO3)[C@@H](C)CN([C@@H](C)CO)C(=O)c2cc(NC(=O)Cc3ccccc3)ccc2O1`: the relative growth is inactive: 1.04.

`C[C@@H]1CCCCO[C@@H](CN(C)S(=O)(=O)c2cn(C)cn2)[C@H](C)CN([C@H](C)CO)C(=O)c2cc(N(C)C)ccc2O1`: the relative growth was inactive: 1.

With `Cc1noc(C)c1S(=O)(=O)N(C)C[C@H]1OCCCC[C@@H](C)Oc2ccc(N(C)C)cc2C(=O)N([C@@H](C)CO)C[C@@H]1C`, the relative growth was inactive: 1.

For the compound `CC(=O)Nc1ccc(CC(=O)O)cc1`, the relative growth was inactive: 1.17.

With `CCCC#Cc1cnc2c(c1)C(=O)N([C@H](C)CO)C[C@@H](C)[C@@H](CN(C)S(=O)(=O)c1cccc(OC)c1)O2`, the relative growth was inactive: 1.03.

Regarding `CNCc1n[nH]c2c1CCC2`, the relative growth is inactive: 1.03.

As for `COc1ccc([Si](C)(C)[C@@H]2[C@@H](CC(=O)N3Cc4ccccc4C[C@H]3CO)O[C@]3(C(=O)N(Cc4ccc(N5CCOC5=O)cc4)c4ccccc43)[C@H]2C)cc1`, the relative growth is inactive: 1.04.

With `C[C@@H]1CN([C@@H](C)CO)C(=O)c2c(c3ccccc3n2C)-c2ccccc2CO[C@H]1CN(C)Cc1ccccc1`, the relative growth was inactive: 0.994.

With `C[C@@H]1CN([C@@H](C)CO)C(=O)c2cc(NC(=O)Cc3ccccc3)ccc2O[C@@H]1CN(C)Cc1ccc(Cl)c(Cl)c1`, the relative growth was inactive: 1.

Regarding `CC(CCC(=O)NCC(=O)O)C1CCC2C3C(O)CC4CC(O)CCC4(C)C3CC(O)C12C` (stereo unspecified), the relative growth is inactive: 0.916.

With `Cc1[nH]c(=O)[nH]c(=O)c1S(=O)(=O)N1CCC[C@H](C(=O)NCCc2c[nH]c3ccc(F)cc23)C1`, the relative growth was inactive: 1.02.

`Cc1nc2n(c(=O)c1CCN1CCC(c3noc4cc(F)ccc34)CC1)CCCC2`: the relative growth is inactive: 1.1.

For `C[C@H]1CCCCO[C@H](CN(C)Cc2ccccc2)[C@@H](C)CN([C@@H](C)CO)C(=O)c2cc(NS(=O)(=O)c3ccccc3)ccc2O1`, the relative growth was inactive: 0.997.

Regarding `COc1ccc(S(=O)(=O)N(C)C[C@H]2OCCCC[C@H](C)Oc3ccc(NC(=O)c4ccccc4)cc3C(=O)N([C@@H](C)CO)C[C@H]2C)cc1`, the relative growth is inactive: 1.01.

In the case of `C[C@H]1CN([C@@H](C)CO)C(=O)c2cc(/C=C/c3ccccc3)cnc2O[C@@H]1CN(C)C(=O)c1cnccn1`, the relative growth was inactive: 0.998.

Take `Cc1ccc(S(=O)(=O)N(C)C[C@H]2OCCCC[C@H](C)Oc3ccc(NC(=O)CCC(F)(F)F)cc3C(=O)N([C@H](C)CO)C[C@@H]2C)cc1`: the relative growth was inactive: 1.04.

In the case of `COc1cc(/C=C/C(=O)CC2=C[C@H](c3ccc(O)c(OC)c3)SC(NCc3ccco3)=N2)ccc1O`, the relative growth is inactive: 0.941.

As to `COc1ccc(CN(C)C[C@@H]2OCCCC[C@@H](C)Oc3ccc(NC(=O)Nc4ccc(OC)cc4)cc3C(=O)N([C@@H](C)CO)C[C@H]2C)cc1`, the relative growth was inactive: 0.975.

Turning to `C[C@@H]1CCCCO[C@@H](CN(C)C(=O)c2ccccc2)[C@H](C)CN([C@@H](C)CO)C(=O)c2cc(NC(=O)NC3CCCCC3)ccc2O1`, the relative growth was inactive: 0.998.

As for `Cc1ccc(S(=O)(=O)N[C@H]2C=C[C@@H](CC(=O)NCCN3CCCCC3)O[C@@H]2CO)cc1`, the relative growth was inactive: 1.

In the case of `CCN1CCO[C@@]2(O)C=CC(=O)C=C12`, the relative growth was inactive: 0.934.

Take `C[C@H]1CCCCO[C@H](CN(C)CC2CC2)[C@@H](C)CN([C@@H](C)CO)C(=O)c2cc(NS(C)(=O)=O)ccc2O1`: the relative growth is inactive: 0.906.

Turning to `O=C(NCCN1CCCC1)[C@@H]1[C@@H](CO)[C@@H]2Cn3c(cccc3=O)[C@H]1N2C(=O)c1ccccc1`, the relative growth is inactive: 1.02.

For the compound `COCC#Cc1cnc2c(c1)C(=O)N([C@@H](C)CO)C[C@@H](C)[C@H](CN(C)C(=O)CCN1CCCCC1)O2`, the relative growth was inactive: 1.01.

Take `COc1ccc(S(=O)(=O)N(C)C[C@@H]2OCCCC[C@H](C)Oc3ccc(NS(=O)(=O)c4ccc(Cl)cc4)cc3C(=O)N([C@H](C)CO)C[C@@H]2C)cc1`: the relative growth is inactive: 1.03.

Consider `C[C@H](CO)N1C[C@H](C)[C@H](CN(C)C(=O)Nc2ccc(F)cc2)OCCCC[C@H](C)Oc2ccc(NS(=O)(=O)c3ccc(F)cc3)cc2C1=O`, for which the relative growth is inactive: 1.

Consider `C[C@@H]1CCCCO[C@H](CN(C)C)[C@H](C)CN([C@@H](C)CO)C(=O)c2cc(NS(=O)(=O)c3cn(C)cn3)ccc2O1`, for which the relative growth was inactive: 0.994.

`C[C@@H]1CN([C@@H](C)CO)C(=O)CCCn2nncc2CO[C@H]1CN(C)C(=O)Nc1cccc(C(F)(F)F)c1`: the relative growth was inactive: 0.985.

On to `COC(=O)c1c2oc(c1C(=O)OC)C(=O)N[C@H](Cc1ccccc1)Cn1cc(nn1)[C@@H](Cc1ccccc1)NC(=O)N[C@@H](COC(=O)NCCCCCC(=O)NO)CC2`, for which the relative growth is inactive: 1.01.

As for `C[C@H]1CN([C@@H](C)CO)C(=O)c2cc(NC(=O)Cc3ccccc3)ccc2O[C@@H]1CN(C)S(=O)(=O)c1cccs1`, the relative growth was inactive: 0.993.

On to `C[C@H]1CN([C@@H](C)CO)C(=O)c2c(c3ccccc3n2C)-c2ccccc2CO[C@@H]1CN(C)Cc1ccc(-c2ccccc2)cc1`, for which the relative growth was inactive: 1.03.

Consider `Nc1ccc(C(=O)N(CCO)CCO)cc1`, for which the relative growth is inactive: 0.997.

For `C[C@@H]1CN([C@H](C)CO)C(=O)Cc2cc(NC(=O)Nc3cccc4ccccc34)ccc2O[C@@H]1CN(C)Cc1ccc(C(F)(F)F)cc1`, the relative growth is inactive: 1.06.

Take `CCCNC(=O)N(C)C[C@H]1Oc2ncc(-c3ccc(C(=O)N(C)C)cc3)cc2C(=O)N([C@H](C)CO)C[C@@H]1C`: the relative growth was inactive: 1.02.

`c1ccc(-c2n[nH]c3c2CCC3)cc1`: the relative growth was inactive: 0.933.

Regarding `CN(C)CCCNC(=O)C[C@@H]1CC[C@H]2[C@H](COc3ccc(NC(=O)c4ccc5c(c4)OCO5)cc3C(=O)N2C)O1`, the relative growth was inactive: 1.01.

On to `C[C@H](CO)N1C[C@H](C)[C@@H](CN(C)Cc2ccc(Oc3ccccc3)cc2)Oc2ccc(NS(=O)(=O)c3ccc(F)cc3)cc2C1=O`, for which the relative growth is inactive: 0.977.

Take `Cc1noc(C)c1NC(=O)Nc1cccc2c1O[C@@H](CN(C)S(=O)(=O)c1cn(C)cn1)[C@@H](C)CN([C@H](C)CO)C2=O`: the relative growth was inactive: 1.04.

For the compound `COc1ccc(S(=O)(=O)N[C@@H]2C=C[C@@H](CC(=O)N3CCN(c4ccccc4)CC3)O[C@@H]2CO)cc1`, the relative growth is inactive: 1.01.

For the compound `CC(C)NC(=O)Nc1ccc2c(c1)C(=O)N([C@@H](C)CO)C[C@@H](C)[C@@H](CN(C)Cc1ccccc1)OCCCC[C@@H](C)O2`, the relative growth was inactive: 1.01.

On to `COc1ccccc1NC(=O)N(C)C[C@H]1Oc2ncc(C#CCN(C)C)cc2C(=O)N([C@@H](C)CO)C[C@@H]1C`, for which the relative growth is inactive: 1.04.

Consider `C[C@@H]1CN([C@@H](C)CO)S(=O)(=O)c2ccc(Br)cc2O[C@@H]1CN(C)C(=O)c1ccncc1`, for which the relative growth was inactive: 0.981.

Consider `Cc1noc(C)c1NC(=O)Nc1ccc2c(c1)C(=O)N([C@H](C)CO)C[C@H](C)[C@@H](CN(C)S(=O)(=O)c1ccc(Cl)cc1)OCCCC[C@H](C)O2`, for which the relative growth is inactive: 0.988.

For the compound `CC(C)NC(=O)Nc1ccc2c(c1)CC(=O)N([C@@H](C)CO)C[C@H](C)[C@@H](CN(C)S(=O)(=O)c1cn(C)cn1)O2`, the relative growth was inactive: 0.972.

In the case of `CO[C@@H]1CN(C)C(=O)c2cc(NS(=O)(=O)CC(F)(F)F)ccc2OC[C@H](C)N(Cc2cccnc2)C[C@H]1C`, the relative growth was inactive: 0.97.

As to `CC(C)(C)OC(=O)N1CCC(N)CC1`, the relative growth is inactive: 0.98.

For `COC(=O)C[C@](O)(CCCC(C)(C)O)C(=O)O[C@@H]1C(OC)=C[C@]23CCCN2CCc2cc4c(cc2[C@H]13)OCO4`, the relative growth was inactive: 1.01.

`COc1ccc2c3c([nH]c2c1)[C@H](CO)N(C[C@]13CN(CC2CCCCC2)C1)S(=O)(=O)c1cn(cn1)C`: the relative growth is inactive: 0.966.

For the compound `C[C@@H]1CN([C@@H](C)CO)C(=O)c2cc(NS(=O)(=O)c3ccc(Cl)cc3)ccc2O[C@@H]1CN(C)C(=O)Nc1ccc(C(F)(F)F)cc1`, the relative growth is inactive: 0.99.

In the case of `O=C(N1CCCC1)N1CCNCC1`, the relative growth was inactive: 0.978.
